Experimental data published in PubChem BioAssay AID1508623 (National Center for Advancing Translational Sciences (NCATS), 2021).
Out of some 48,000 compounds screened, about 450 (0.94%) were called active. Roughly 19% stayed inconclusive and do not appear here. Calls follow the shape of the dose curve; as a rule, active = well fitted inhibition curve with a large enough effect; inconclusive = small, poorly fitted or top-dose-only effect; inactive = no such curve, though single readings can be large or run the other way. This is one part of the list.

Assay: Primary qHTS for Identification of Small Molecule Inhibitors of Huntingtin Promoter Activity; also: nearly all actives have a fitted effect of over 50% in size
Settings: HEK293 HTT promoter firefly luciferase reporter (activity 0% = vehicle and -100% = no light), 24 h; series mostly up to 57.5 µM; activity change, negative = inhibition: at the top concentration
Summary of the method: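 Firefly luciferase signal from promoter-reporter HEK293 cells was scaled between vehicle (0%) and zero RLU (-100%). Compounds were tested at final concentrations of up to 57.5 uM over 24 h at 37 degrees C. PTC124 at 50 uM final served as control inhibitor.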
Potency is read from the fitted curve at half-maximal effect.

Activity change, negative = inhibition, inactive:
CC1=C(C(=O)Nc2ccccc2C)C(c2ccncc2)n2nc(SCc3ccccc3)nc2N1 (stereo unspecified) -7.26%
CCN1CCN(c2cc(C)c3cc(NC(=O)c4cccc(C(F)(F)F)c4)ccc3n2)CC1 -4.62%
COc1cn(CC(=O)Nc2ccc(F)cc2)c(CN2CCCCC2)cc1=O -6.26%
COc1cccc(CSc2nc3n(n2)C(c2cccs2)C(C(=O)Nc2ccccc2C)=C(C)N3)c1 (stereo unspecified) 7.45%
CCOC(=O)c1c(N)n(-c2ccc(Cl)c(Cl)c2)c2nc3ccccc3nc12 2.42%
Cc1cccc(Cn2c(CN3CCC(C(=O)NCc4cccnc4)CC3)cc3ccccc32)c1 4.64%
Cc1ccc(NC(=O)Cn2c(=O)n(-c3ccc(Cl)c(Cl)c3)c(=O)c3c(C)c(C)sc32)c(C)c1 -11.2%
COc1cc(OC)c(NC(=O)CCCn2nc(C)c3sc4ccccc4c3c2=O)cc1Cl -7.11%
COC(=O)c1ccc(Cl)cc1NC(=O)N1CCCn2nc(C)cc21 -3.22%
COc1nc(-c2ccc(C)cc2)ccc1-c1noc(-c2ccccc2Br)n1 -4.71%
CCCCOC(=O)CSc1nnc(-c2ccccc2)o1 -5.24%
O=c1c2cccnc2n(Cc2ccccc2F)c(=O)n1Cc1ccccc1Cl -5.85%
Cc1ccc(C)c(N2CCN(C(=O)CN3CCSc4ccc(S(=O)(=O)N(C)C)cc43)CC2)c1 -29.5%
CC(=O)Nc1nonc1-c1nnc(SCC(=O)Nc2cc(C)cc(C)c2)n1C -9.62%
C[C@]12CC[C@@H]3c4ccc(O)cc4CC[C@H]3[C@@H]1CCC2=O -0.13%
Cc1oc2ncn(CC(C)C)c(=O)c2c1C(=O)N1CCN(c2ccc(F)cc2)CC1 0%
COc1ccccc1CNc1ccc(-c2nc(C)no2)cc1[N+](=O)[O-] -12.9%
COc1ccc(-c2oc3ncn4nc(-c5ccccc5Br)nc4c3c2-c2ccc(OC)cc2)cc1 -14.6% [at 11.5 µM]
COc1cccc(NC(=O)c2oc3ccccc3c2NC(=O)c2ccc(C(F)(F)F)cc2)c1 2.05%
O=C(CN1CCCN(Cc2ccc(Cl)cc2)S1(=O)=O)Nc1ccccc1F 3.19%
COc1cccc2c1Oc1ncccc1N(C(=O)CCC(=O)NCc1ccc(N(C)C)cc1)C2 -7.19%
COc1ccc(-n2c(=O)c3c4c(sc3n(Cc3ccccc3)c2=O)CN(C(C)=O)CC4)cc1OC -12%
COc1ccccc1NC(=O)c1ccc2c(Cl)c3c(nc2c1)CCCC3 2.62%
O=C(c1cc(=O)c2cc(Cl)ccc2o1)N(Cc1ccccc1)C1CCS(=O)(=O)C1 (stereo unspecified) 20%
Cc1nc(N2CCCC2)c2c(C(=O)Nc3cccc(Cl)c3C)c(C)oc2n1 -12.3%
Cc1ccc(-n2ncc3c(NCCCc4ccccc4)ncnc32)cc1 5.2%
COc1ccc(NC(=O)CSc2nc3nc(C)c(Cc4ccc(C)cc4)c(C)n3n2)cc1OC -25.1%
COc1ccc(Cl)cc1-n1nnc(-c2nc(-c3ccc4c(c3)OCO4)no2)c1C 3.37%
CCCNC(=O)C1CCC(Cn2c(=O)c3sccc3n(Cc3ccccc3C)c2=O)CC1 (stereo unspecified) 9.1%
COc1cc2[nH]c(=O)n(Cc3ccc(C(=O)NCc4ccccc4)cc3)c(=O)c2cc1OC -13.1%
Cc1cccc(C)c1NC(=O)c1csc2c1CCCC2 -10.4%
COc1ccccc1NC(=O)C(=O)c1cc(C)n(-c2ccccc2F)c1C -28.8%
Cc1ccc(NC(=O)Nc2nnc(SCC(=O)Nc3ccc(F)cc3F)s2)cc1 -18.6%
O=C(NCCCc1nc2ccccc2n1Cc1cccc(Cl)c1)c1ccco1 -21%
Cc1nnc(C)n1-c1ccc(C(=O)Nc2cccc(Br)c2)cc1 -25.2% [at 11.5 µM]
COCCCNC(=O)NC(CCC(C)C)c1c(-n2cccc2)sc2c1CCN(C)C2 (stereo unspecified) -17%
Cc1c(Cl)cccc1NC(=O)CCCn1nc(C)c2sc3ccccc3c2c1=O -5.39%
CCC1CCCCN1S(=O)(=O)c1ccc(NC(=O)c2cc(=O)c3c(C)cc(C)cc3o2)cc1 (stereo unspecified) 4.24%
Cc1cccc(Cn2cc3c(=O)n(CC(=O)Nc4c(C)cccc4C)nc-3c3cc(F)ccc32)c1 5.13%
CC(C)Sc1nc2sc3c(c2c(=O)n1Cc1ccccc1)CCCC3 5.61%
CCCCCCCCc1ccc(CCC(N)(CO)CO)cc1 -10.7%
CC1(C)CC(=O)c2cc(-c3nc(-c4ccccc4)cs3)c(=O)[nH]c2C1 1.46%
Cc1ccc(NC(=O)C2CCN(S(=O)(=O)c3c(C)noc3C)CC2)cc1 -11.9%
O=C(NCCN1CCN(c2ccccc2)CC1)Nc1cccc(Br)c1 -26.8%
COc1ccc(Nc2nc(-c3cccc(Cl)c3)c3c(n2)-c2ccccc2OC3)cc1 -30.7%
CCOc1ccc(NC(=O)CSc2nc3ccsc3c(=O)n2C(C)CC)cc1 (stereo unspecified) -8.45%
CCOc1ccc(CCNC(=O)CCc2c(C)nc3c(c(C)nn3-c3ccc(C)c(C)c3)c2C)cc1 -0.863%
Cc1cccc2c1-c1sc(C(=O)N3CCN(c4ccccc4)CC3)cc1CO2 -0.782%
CCOC(=O)C=C[C@H](C[C@@H]1CCNC1=O)NC(=O)[C@@H](CC(=O)[C@@H](NC(=O)c1cc(C)on1)C(C)C)Cc1ccc(F)cc1 9.46%
CCCCNS(=O)(=O)c1ccc2nc(-c3cccnc3)cc(C(=O)NCCCOC(C)C)c2c1 20.9%
CCOc1cccc(Nc2nn(-c3ccc(OC(F)(F)F)cc3)nc2C(C)=O)c1 -0.236%
CCOC(=O)c1cnc2c(C)c(Cl)ccc2c1NCCc1ccc(OC)c(OC)c1 -30.6%
Cc1ccc(N(CC(=O)NCCc2ccccc2C)S(=O)(=O)N(C)C)cc1 -11.9%
CCOC(=O)c1ccc(NC(=O)C2CC(=O)NC(=Nc3ccc(C)c(C)c3)S2)cc1 (stereo unspecified) -28.2%
COc1ccccc1CNC(=O)Cn1c(=O)oc2cc(S(=O)(=O)N3CCCC3)ccc21 -39.7%
CCCCN(C)CCNC(=O)c1ccc(Cn2c(=O)[nH]c3cc(OC)c(OC)cc3c2=O)cc1 -2.52%
COc1cc(-c2nc(S(=O)(=O)c3ccc(Br)cc3)c(N3CCOCC3)o2)cc(OC)c1OC -6.52%
COc1ccc(Br)cc1C(=O)Nc1cccc2ccc(C)nc12 -12.6%
CCc1nc2nc(C)cc(Nc3cc(Cl)ccc3C)n2n1 -29.5%
CCc1ccc(CNC(=O)c2ccc3c(Cl)c4c(nc3c2)CCCC4)cc1 -2.45%
Cc1cc(N2CCN(c3cccc(C)c3C)CC2)n2cnnc2n1 -6.82%
CCOC(=O)c1cnn(-c2ccc(C(=O)Nc3ccc(OC(F)(F)F)cc3)cc2)c1N -14.9%
CC(=O)Nc1ccc(NC(=O)C2CCCN(S(=O)(=O)c3ccc4c(c3)CCCC(=O)N4)C2)cc1 (stereo unspecified) -0.281%
COc1ccc(Cl)cc1NC(=O)Cn1ncc2c3ccccc3n(C)c2c1=O -23.4%
CCCN(Cc1cccs1)C(=O)Nc1cc(Cl)ccc1C 3.82%
Cc1nn(CC(=O)NCc2ccc(F)cc2)c2ccccc12 -0.323%
CCCCCCCCCCCCCCNCCO -9.17%
Cc1ccc2[nH]c3c(=O)n(CC(=O)NCc4ccco4)ncc3c2c1 0.892%
O=C(NCc1ccc(Cl)cc1)c1ccc2c(Cl)c3c(nc2c1)CCCC3 -5.99%
Cc1ccc(C)c(N2CCN(C(=O)CCC(=O)Nc3ccc4nc(N5CCCCC5)cc(C)c4c3)CC2)c1 -24.5%
Cc1ccc(OCCSc2nnc(-c3cccs3)o2)cc1Cl -19.8% [at 11.5 µM]
CCOC(=O)c1cccc(NC(=O)CCCn2nc(C)c3c(C)n(-c4ccccc4)nc3c2=O)c1 5.67%
CC(=O)Nc1ccc(NC(=O)C2CCN(c3c(NC(C)=O)c(C)nn3-c3ccccc3)CC2)cc1 33.6%
CCOC(=O)c1ccc2nc(C)cc(Nc3cccc(C(=O)O)c3)c2c1 -5.38%
COc1ccc(Cl)cc1-n1nnc(-c2nc(-c3ccccc3)no2)c1C 9.45%
Cn1c(SCC(=O)Nc2ccccc2)nnc1-c1ccccc1 -11.6%
COc1ccc(-c2nc3cc(C(C)C)ccc3o2)cc1NC(=O)c1ccccc1[N+](=O)[O-] -11.9%
CCOc1ccccc1CNC(=O)CCn1c(=O)c2cccn2c2ccc(F)cc21 -9.33%
COc1ccc2c(c1)c(=O)c(C(=O)c1ccc(C)c(C)c1)cn2CC(=O)Nc1ccc2c(c1)OCCO2 -7.26%
Cc1ccc(CNc2nc(-c3ccco3)nn2S(C)(=O)=O)cc1 62.7%
Cc1ccc(Cn2c(CN3CCC(C(=O)NCc4ccccc4C)CC3)cc3ccccc32)cc1 -10.5%
COc1ccc(NC(=O)C2COc3ccccc3C2)cc1Cl (stereo unspecified) -12.6%
Cc1ccc2c(n1)Oc1ccc(C(C)C(=O)OCC(=O)N(C)C)cc1C2 (stereo unspecified)
Cc1ccc(NC(=O)CCOc2ccccc2)cc1 47.7%
COc1ccccc1N1CCN(C(=O)Cn2c(=O)n3nc(-c4ccc(C)cc4)nc3c3ccccc32)CC1 15.4%
COc1ccc(NC(=O)c2cccc(N3CCCS3(=O)=O)c2)cc1OC 42.8%
Cc1nc(N2CCCC2)ncc1C(=O)NCc1cccc(Cl)c1 -20.2%
CCc1ccc(NC(=O)CSc2nc3ccccc3nc2Cc2ccc(C)cc2)cc1 0.933%
COc1ccc(C)cc1NC(=O)CN1c2ccccc2S(=O)(=O)c2ccccc21 -38.8%
Cc1nnc(N2C(=O)c3oc4ccccc4c(=O)c3C2c2ccc(C(C)(C)C)cc2)s1 (stereo unspecified) -13.1%
COCCNC(=O)c1ccc2c(=O)n(CCc3ccccc3)c(SCC(=O)CC(=O)OC)nc2c1 -16.3%
CCC(C)NC(=O)CSc1nc2cc3c(cc2c(=O)n1CCCC(=O)NCCc1ccc(OC)c(OC)c1)OCO3 (stereo unspecified) -19.2%
COc1cccc(-c2nc(S(=O)(=O)c3ccccc3)c(N3CCCCC3)o2)c1 1.84%
Cc1cccc(OCCSc2nc3ccccc3n2CC(=O)N2CCOCC2)c1 -17.1%
COc1ccccc1CNC(=O)c1ccc(CS(=O)(=O)c2c(Cl)cccc2Cl)o1 -7.62%

Potency, active:
COc1ccc(-c2noc(N3CCC(C(=O)N4CCN(c5ccccc5OC)CC4)CC3)n2)cc1 12.6 µM
